# Assay results from the supplement of paper PMC12217912.
# This is one part of the list. The full chains were built here from the parent and the listed change. Values near 0.05 are background.
# B1: TEV protease; numbered along this chain (parent)
# chain: MGESLFKGPRDYNPISSSICHLTNESDGHTTSLYGIGFGPFIITNKHLFRRNNGTLVVQSLHGVFKVKDTTTLQQHLVDGRDMIIIRMPKDFPPFPQKLKFREPQREERICLVTTNFQTKSMSSMVSDTSCTFPSGDGIFWKHWIQTKDGQCGSPLVSTRDGFIVGIHSASNFTNTNNYFTSVPKNFMELLTNQEAQQWVSGWRLNADSVLWGGHKVFMVKPEEPFQPVKEATQL
# Variants of: B1
# Experiment: raw area under fraction-flipped curve 0-4 h after induction (AUC4h, not background-subtracted), DNA-recorder readout of cleavage of the substrate (dimensionless); higher = more cleavage of the substrate by the protease variant
# Conditions: temperature: 34 °C; time window: 0-4 h after rhamnose induction
# Method: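 In vivo DNA recorder in E. coli TOP10(DE3) ΔrhaA at 34 °C. Each TEVp single-site mutant (parent TEVp 0) is paired with a single-site variant of the 7-mer TEVs (canonical ENLYFQ|S). The substrate sits between flexible linkers in a Bxb1-sfGFP-TEVs-SsrA fusion, so cleavage stabilises Bxb1 and speeds flipping of a recombination array, read by NGS. The value is the raw area under the fraction-flipped curve over 0-4 h after rhamnose induction (AUC4h), with ≥20 reads per time point. It is not background-subtracted; inactive controls average about 0.047.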
# 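Note: Bxb1 expression induced with 0.2% (w/v) L-rhamnose at OD600 near 0.5, cultures sampled hourly, flipped fraction per protease–substrate barcode pair counted by paired-end Illumina sequencing.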
Variant,area with substrate ENLAFQS,area with substrate ENLDFQS,area with substrate ENLEFQS,area with substrate ENLFFQS,area with substrate ENLGFQS,area with substrate ENLHFQS,area with substrate ENLKFQS,area with substrate ENLLFQS,area with substrate ENLMFQS,area with substrate ENLPFQS,area with substrate ENLQFQS,area with substrate ENLRFQS,area with substrate ENLSFQS,area with substrate ENLWFQS,area with substrate ENLCFQS,area with substrate ENLIFQS,area with substrate ENLNFQS,area with substrate ENLVFQS,area with substrate ENLTFQS
L33I,0.053,0.0615,0.0603,0.048,0.061,0.0616,0.0532,0.0604,0.0497,0.0657,0.0588,0.0647,0.0574,0.0654,–,–,–,–,–
T30Y,0.0533,0.0647,0.0537,0.0872,–,0.0701,0.0768,0.0733,0.0656,0.0508,0.0617,0.0702,0.0395,0.0622,0.0729,0.066,0.0605,–,–
N24E,0.092,0.0618,–,0.0751,–,0.0468,–,0.0714,–,0.066,0.0486,0.0403,0.0703,0.0778,–,0.0834,0.0616,–,–
D27W,0.0502,0.0561,0.0659,0.0978,0.0671,0.0714,0.0616,0.0604,–,0.0546,–,–,0.0611,0.0539,0.0653,–,0.0703,–,–
D27C,0.0644,0.0605,0.0568,0.0684,–,0.069,0.0795,0.0707,–,0.041,0.0877,0.0829,0.0511,0.0636,0.0982,–,0.0558,0.091,–
F38W,0.0661,0.0619,0.0608,0.0931,0.0806,0.0681,0.0697,0.105,0.0651,0.0638,0.0654,0.0667,–,–,0.0803,0.0714,0.0687,0.107,–
F38C,0.0565,0.0612,0.0583,0.0933,0.0611,0.0645,0.0594,0.0741,–,0.052,0.0607,0.0679,0.0629,0.0686,–,–,0.0643,–,–
F38Y,0.0446,0.0335,0.0655,0.0847,–,0.0684,0.0926,–,–,0.0554,0.0523,0.0838,0.0691,0.0584,0.0639,0.0784,0.092,–,–
G28I,0.0937,0.0505,0.058,0.0654,–,0.0624,0.068,0.0766,–,0.0564,0.059,0.0587,0.0637,–,0.0597,–,0.0696,0.0722,0.0681
S26H,0.0453,–,0.0616,0.0755,–,0.0503,0.0667,0.0798,–,0.0235,0.0602,0.0657,0.0704,–,0.0581,0.0705,0.063,–,–
S26P,0.0666,–,0.0639,0.0611,0.0632,0.0637,0.0599,0.057,–,0.0643,–,0.0472,0.051,0.0349,0.0609,–,0.0527,–,0.0576
T23N,0.0626,0.0638,–,0.0698,–,0.0639,0.0798,–,0.0758,0.0531,0.078,0.0834,0.0408,0.0724,–,0.0793,0.0683,–,–
T23L,0.0555,0.0562,0.0669,0.114,0.0663,0.0854,0.0728,0.0748,0.0682,0.0583,–,0.0685,0.0615,0.0632,–,–,0.0671,–,–
T23Y,0.0592,0.0677,0.0714,0.0783,–,0.0614,–,–,–,0.0617,0.0711,0.0693,0.064,–,0.0696,0.0867,–,–,0.0752
T23C,0.0623,0.0599,0.0621,0.0891,–,0.0614,0.0762,0.061,–,0.0593,0.0728,0.0789,0.0773,0.0781,–,0.0831,0.0811,0.0931,–
H29C,0.0538,0.0723,0.063,0.106,0.0871,0.0702,0.0746,0.0757,0.0721,0.0583,0.0745,0.0895,0.0453,0.0433,0.092,0.0915,0.063,–,–
H29N,0.0829,0.0606,0.0557,0.0777,–,0.0716,0.0805,0.0625,0.0727,0.0589,0.0696,0.0666,0.0884,0.0706,0.071,0.0772,0.0719,–,0.0747
I36M,0.0652,0.0693,0.0448,0.0981,0.0708,0.0607,0.0623,0.0701,0.0742,–,–,0.0689,–,0.0945,0.067,0.0753,0.0644,–,–
I36T,0.0661,0.0543,–,–,0.0636,0.0603,0.0693,0.0405,–,0.0554,0.0519,0.0767,–,0.0629,0.0746,0.0537,0.0727,–,–
I36S,0.0453,0.0676,0.0536,0.0673,–,0.0677,0.055,0.0633,–,0.0439,0.0587,–,0.0536,0.055,0.0614,0.0486,0.0546,–,0.0654
I19K,0.0473,0.052,0.0569,0.0644,0.0772,–,0.0599,–,–,0.0523,0.0442,0.0636,0.0457,0.0559,–,0.0568,0.057,0.0641,–
I19V,0.0637,0.0747,0.0591,0.0813,–,0.0665,0.073,0.0764,0.0763,–,–,0.0825,0.0665,–,0.069,–,0.0691,–,0.0719
I19P,0.0522,0.0388,0.0488,0.0494,0.0381,0.0503,0.0404,0.0475,0.0571,0.0549,0.0512,0.0432,0.047,0.05,0.0414,0.0448,0.0482,0.048,–
I19Y,0.0541,0.0533,–,0.046,0.0562,0.0323,0.0468,0.0568,–,0.0538,–,0.0735,0.0513,0.0534,0.0326,0.0551,0.0448,–,–
T31A,0.0553,0.0517,–,0.0822,–,0.0675,0.0585,–,0.0789,0.0533,–,0.0758,0.0717,–,0.0745,–,0.0621,–,–
